Experimental data: patent US12503498B2, “Fc containing polypeptides with altered glycosylation and reduced effector function” (Genzyme Corporation, priority 2012, dated 2025)

Tested on: human PBMC
Assay: T cell depletion/Cytokine Release assay with human PBMC
Assay type: cell-based
Settings: cells stained at D4 for abTCR expression
Description: Fc-engineered mutants were assessed through a PBMC proliferation assay and a cytokine release assay. In the PBMC proliferation assay, human PBMC were cultured with increasing concentrations of therapeutic antibody for 72 hours, ^3H-thymidine was added and cells were harvested 18 hours later. For the T cell depletion/Cytokine Release assay, human PBMC were cultured with increasing concentrations of therapeutic antibody and were analyzed daily for cell counts and viability (Vi-Cell. Beckman Coulter) out to day 7. Cell supernatants were also harvested, stored at −20° C. and analyzed on an 8-plex cytokine panel (Bio-Rad).
Normal donor PBMC were thawed and treated under the following conditions (all in media containing complement): Untreated: BMA031, moIgG2b 10 ug/ml; OKT3, moIgG2a 10 ug/mi; H66, huIgG1 deltaAB 10 ug/ml, 1 ug/ml and 0.1 ug/ml; H66, huIgG1 S298N/T299A/Y300S 10 ug/ml, 1 ug/ml and 0.1 ug/ml.
Cytokines were harvested at day 2 (D2) and day 4 (D4) for Bioplex Analysis (IL2. IL4, IL6, IL8. IL10, GM-CSF, IFNg, TNFa). Cells were stained at D4 for CD4, CD8, CD25 and abTCR expression.

B1: H66 S298N/T299A/Y300S: H66 anti-αβTCR mutant S298N/T299A/Y300S, heavy chain SEQ ID NO 26 (antibody)
heavy: EVQLLQSGGGLVQPGGSLRLSCAASGYKFTSYVMHWVRQAPGKGLEWVGYINPYNDVTKYNEKFKGRFTLSRDNSKNTLYLQMNSLRAEDTAVYYCARGSYYDYDGFVYWGQGTLVTVSSASTKGPSVFPLAPSSKSTSGGTAALGCLVKDYFPEPVTVSWNSGALTSGVHTFPAVLQSSGLYSLSSVVTVPSSSLGTQTYICNVNHKPSNTKVDKKV[sequence of human IgG1 Fc with S298N T299A Y300S (EU numbers) omitted]
light: EIVLTQSPATLSLSPGERATLSCSATSSVSYMHWYQQKPGQAPRRLIYDTSKLASGVPARFSGSGSGTSYTLTISSLEPEDFAVYYCQQWSSNPLTFGGGTKVEIKRTVAAPSVFIFPPSDEQLKSGTASVVCLLNNFYPREAKVQWKVDNALQSGNSQESVTEQDSKDSTYSLSSTLTLSKADYEKHKVYACEVTHQGLSSPVTKSFNRGEC
binding to abTCR on PBMC: binding to abTCR
